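Results reflect a 48-hour exposure of cells in 96-well plates to compound at five concentrations. GI50 marks 50% less growth.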 Certain results were filed several times, with different values. This list holds those alone. The source may hold further records. A record mostly stands for its own series of concentrations, not given here; some values may only mark the edge of a range.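 Definition used: TGI = concentration required for complete inhibition of growth.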 *1 amine or outer side, *2 acyl side, *3 side chain or, on linkers, in order; H or OH if unused. Where a SMILES comes first, the peptide text is derived from it. Bridges are numbered along the chain shown (N, C = ends). Roman numbers before positions name the chains, in order. [ ]: non-standard residue; d: D form. Actinocin(9to1) = Cc1c2oc3c(C)ccc(C(=O)[*:1])c3nc-2c(C(=O)[*:2])c(N)c1=O; aThr = C[C@H](O)[C@H](N)C(=O)O; NMeV = CN[C@H](C(=O)O)C(C)C; Sar = CNCC(=O)O
Test system: MDA-MB-468 breast
Assay: DTP human tumour cell line panel, 48 h

Q: With O=C(Nc1cccc(-n2ccc3c(NC(=O)c4ccccc4)nccc32)c1)c1ccc(Cl)c(C(F)(F)F)c1 as the molecule, how does the GI50 read?
A: 16.3 µM [1 test] and 91.4 nM [mean of 2 tests]

Q: And the TGI?
A: 50.8 µM [1 test] and 515 nM [mean of 2 tests]

Q: Which GI50 does the source give for Cc1c2oc3c(C)ccc(C(=O)N[C@@H]4C(=O)N[C@H](C(C)C)C(=O)N5CCC[C@H]5C(=O)N(C)CC(=O)N(C)[C@@H](C(C)C)C(=O)O[C@H]4C)c3nc-2c(C(=O)N[C@@H]2C(=O)N[C@H](C(C)C)C(=O)N3CCC[C@H]3C(=O)N(C)CC(=O)N(C)[C@@H](C(C)C)C(=O)O[C@H]2C)c(N)c1=O (I: [aThr][dV]P[Sar][NMeV] / II: [aThr][dV]P[Sar][NMeV]; ester I:1-I:C, II:1-II:C; linker I:N-II:N via Actinocin(9to1)) here?
A: 6.8 nM [1 test] and 0.542 nM [mean of 4 tests]

— PubChem BioAssay (NCI)
